In the assay the target is SARS-CoV Spike trimer (Table A) (SARS-CoV). Put plainly: ELISA, purified IgG. The following applies: remark: other sources report otherwise. In general terms: In an ELISA, binding on a coated surface is turned into a signal by an enzyme label.

B1: COV2-2196 (antibody, V domains shown)
VH: QMQLVQSGPEVKKPGTSVKVSCKASGFTFMSSAVQWVRQARGQRLEWIGWIVIGSGNTNYAQKFQERVTITRDMSTSTAYMELSSLRSEDTAVYYCAAPYCSSISCNDGFDIWGQGTMVTVSS
VL: [here about 100 residues without letters]GWTFGQGTKVEIK
On to B1, for which the ELISA OD 450 nm came to 0.09 OD 450 nm.

B2: COV2-2838 (antibody, V domains shown)
VH: QMQLVQSGPEVKKPGTSVKVSCKASGFTFMSSAVQWVRQARGQRLEWIGWIVIGSGNTNYAQKFQERVTITRDMSTSTAYMELSSLRSEDTAVYYCAAPYCSSISCNDGFDIWGQGTMVTVSS
VL: [here about 100 residues without letters]GWTFGQGTKVEIK
Molecule B2 yielded an ELISA OD 450 nm of 0.21 OD 450 nm.

(Values after patent US20210300999A1.)
